In all, about 81,000 sequences were measured (“one-hybrid fitness for binding NBS DNA”: median about -0.1, highest 2% from about 0.36 on). The list shows a part of the results.

This note sets out measurements from a collection of fitness landscapes (doi:10.1016/j.celrep.2020.107928).

B1: Caulobacter ParB omega fusion; a variant is named by its letters at X, in order, B8GW30 (parent)
chain: MESVVVGEPGMSEGRRGLGRGLSALLGEVDAAPAQAPGEQLGGSREAPIEILQRNPDQPRRTFREEDLEDLSNSIREKGVLQPILVRPSPDTAGEYQIVAGERAWRAAQRAGLKTVPIMVRELDDLAVLEIGIIENVQRADLNVLEEALSYKVLMEKFERTQENIAQTIGKSXSHVANXMRLLXLPDEVQSYLVSGELTAXHARAIAAAADPVALAKQIIEGGLSVRETEALARKAPNLSAGKSKGGRPPRVKDTDTQALESDLSSVLGLDVSIDHRGSTGTLTITYATLEQLDDLCNRLTRGI

This assay covers variants of B1. As to the kind of experiment: one-hybrid fitness for binding NBS DNA (the Noc-binding site; scaled: cognate 1, non-cognate 0); higher = stronger binding. Conditions: with NBS DNA site. The method, boiled down: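 The reporter was HIS3, with the binding site 19 bp from the promoter, in E. coli USO used for bacterial one-hybrid selection of Caulobacter ParB libraries with four specificity codons randomised. Growth was on M9 lacking histidine, with 0.1 mM IPTG and 5 mM 3-AT, for 48 hours at 37°C. Illumina sequencing covered plasmids before and after selection; three replicate libraries were pooled and variants with under 10 reads dropped. A fitness score is the log change in variant-to-wild-type read ratio, rescaled to the cognate and non-cognate references.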
On to MERM, for which the “one-hybrid fitness for binding NBS DNA” value is not above 0.2.

For WFSL, the “one-hybrid fitness for binding NBS DNA” value was not above 0.2.

As to PWPM, the “one-hybrid fitness for binding NBS DNA” value was not above 0.2. Regarding IINS, the “one-hybrid fitness for binding NBS DNA” value was not above 0.2.

For the variant SDKY, the “one-hybrid fitness for binding NBS DNA” value is not above 0.2. Then MHDS, with not above 0.2; and EQFS, with not above 0.2. With ESEG, the “one-hybrid fitness for binding NBS DNA” value was not above 0.2. As for PFRK, the “one-hybrid fitness for binding NBS DNA” value is not above 0.2.

Turning to MCGW, the “one-hybrid fitness for binding NBS DNA” value was not above 0.2. As to VRAN, the “one-hybrid fitness for binding NBS DNA” value is not above 0.2. On to MTGV, for which the “one-hybrid fitness for binding NBS DNA” value is not above 0.2. GLYH: the “one-hybrid fitness for binding NBS DNA” value is not above 0.2. On to IYSP, for which the “one-hybrid fitness for binding NBS DNA” value is not above 0.2. For PDKS, the “one-hybrid fitness for binding NBS DNA” value is not above 0.2.

On to NKTR, for which the “one-hybrid fitness for binding NBS DNA” value is not above 0.2. With QDTR, the “one-hybrid fitness for binding NBS DNA” value was not above 0.2.

Turning to YGVD, the “one-hybrid fitness for binding NBS DNA” value is not above 0.2. On to EIKT, for which the “one-hybrid fitness for binding NBS DNA” value is not above 0.2. As for RYMP, the “one-hybrid fitness for binding NBS DNA” value is not above 0.2. For the variant IPQS, the “one-hybrid fitness for binding NBS DNA” value is not above 0.2. As for LCTV, the “one-hybrid fitness for binding NBS DNA” value is not above 0.2. Regarding RPFI, the “one-hybrid fitness for binding NBS DNA” value was not above 0.2. As to VLIS, the “one-hybrid fitness for binding NBS DNA” value is not above 0.2. As to GLYI, the “one-hybrid fitness for binding NBS DNA” value was not above 0.2. For AFIR, the “one-hybrid fitness for binding NBS DNA” value is not above 0.2. For the variant YHPI, the “one-hybrid fitness for binding NBS DNA” value is not above 0.2. As for QCMY, the “one-hybrid fitness for binding NBS DNA” value is not above 0.2. FQLA: the “one-hybrid fitness for binding NBS DNA” value is not above 0.2. Regarding HSAP, the “one-hybrid fitness for binding NBS DNA” value is not above 0.2. Consider RKAE, for which the “one-hybrid fitness for binding NBS DNA” value is not above 0.2. Next, IPRS: not above 0.2; RASQ: not above 0.2. With PFTV, the “one-hybrid fitness for binding NBS DNA” value is not above 0.2. LVYI: the “one-hybrid fitness for binding NBS DNA” value was not above 0.2. In the case of KKHG, the “one-hybrid fitness for binding NBS DNA” value was not above 0.2. As to EFPK, the “one-hybrid fitness for binding NBS DNA” value is not above 0.2.

For WHTR, the “one-hybrid fitness for binding NBS DNA” value is not above 0.2. For the variant SHVV, the “one-hybrid fitness for binding NBS DNA” value is not above 0.2. In the case of YDSA, the “one-hybrid fitness for binding NBS DNA” value was not above 0.2. Turning to PDLD, the “one-hybrid fitness for binding NBS DNA” value was not above 0.2. Consider GPMQ, for which the “one-hybrid fitness for binding NBS DNA” value was not above 0.2. With QPWT, the “one-hybrid fitness for binding NBS DNA” value was not above 0.2. For KGTN, the “one-hybrid fitness for binding NBS DNA” value is not above 0.2. Then QMEV, with not above 0.2; and WYYL, with not above 0.2.

In the case of LEDG, the “one-hybrid fitness for binding NBS DNA” value was not above 0.2.

For the variant HTAA, the “one-hybrid fitness for binding NBS DNA” value was not above 0.2. With QFWF, the “one-hybrid fitness for binding NBS DNA” value is not above 0.2.

DGVR: the “one-hybrid fitness for binding NBS DNA” value is not above 0.2.

NDCS: the “one-hybrid fitness for binding NBS DNA” value is not above 0.2. With QQNT, the “one-hybrid fitness for binding NBS DNA” value turned out to be 0.596. Take QGAH: the “one-hybrid fitness for binding NBS DNA” value was not above 0.2. With TNAG, the “one-hybrid fitness for binding NBS DNA” value is not above 0.2. Next, YPRM: not above 0.2; TFAI: not above 0.2; VWSN: not above 0.2. Next, YTTC: not above 0.2; MYGR: not above 0.2; SKVQ: not above 0.2.

As for SPNV, the “one-hybrid fitness for binding NBS DNA” value is not above 0.2. Take IARE: the “one-hybrid fitness for binding NBS DNA” value was not above 0.2. As for AHVE, the “one-hybrid fitness for binding NBS DNA” value was not above 0.2. For the variant FHTC, the “one-hybrid fitness for binding NBS DNA” value is not above 0.2. Next, VKQS: not above 0.2. As to DAYR, the “one-hybrid fitness for binding NBS DNA” value was not above 0.2. Then TQCI, with not above 0.2. On to KCTS, for which the “one-hybrid fitness for binding NBS DNA” value was not above 0.2.

As to QLFT, the “one-hybrid fitness for binding NBS DNA” value was determined as 0.289.

For QSPV, the “one-hybrid fitness for binding NBS DNA” value was not above 0.2.

Turning to MKRR, the “one-hybrid fitness for binding NBS DNA” value is not above 0.2. With WFRS, the “one-hybrid fitness for binding NBS DNA” value is not above 0.2. KRNE: the “one-hybrid fitness for binding NBS DNA” value is not above 0.2.

In the case of PTCE, the “one-hybrid fitness for binding NBS DNA” value is not above 0.2. WHMR: the “one-hybrid fitness for binding NBS DNA” value was not above 0.2.

As for AGDA, the “one-hybrid fitness for binding NBS DNA” value was not above 0.2. In the case of VEAC, the “one-hybrid fitness for binding NBS DNA” value is not above 0.2.

Take MEPY: the “one-hybrid fitness for binding NBS DNA” value is not above 0.2. As to PFSC, the “one-hybrid fitness for binding NBS DNA” value was not above 0.2. Regarding DQLT, the “one-hybrid fitness for binding NBS DNA” value was not above 0.2. Next, CPIC: not above 0.2; QKNM: not above 0.2; RWMK: not above 0.2. For the variant LPKH, the “one-hybrid fitness for binding NBS DNA” value is not above 0.2.

Consider VHGT, for which the “one-hybrid fitness for binding NBS DNA” value is not above 0.2. Turning to LEEG, the “one-hybrid fitness for binding NBS DNA” value is not above 0.2.

Regarding TGNW, the “one-hybrid fitness for binding NBS DNA” value was not above 0.2. For IGLI, the “one-hybrid fitness for binding NBS DNA” value was not above 0.2. Take MMNF: the “one-hybrid fitness for binding NBS DNA” value is not above 0.2. Consider EKPR, for which the “one-hybrid fitness for binding NBS DNA” value was not above 0.2. Consider CMRW, for which the “one-hybrid fitness for binding NBS DNA” value is not above 0.2.

For the variant VPVV, the “one-hybrid fitness for binding NBS DNA” value was not above 0.2.

As for HYCT, the “one-hybrid fitness for binding NBS DNA” value was not above 0.2. Regarding RWPL, the “one-hybrid fitness for binding NBS DNA” value is not above 0.2. As to IEGT, the “one-hybrid fitness for binding NBS DNA” value is not above 0.2.

Turning to SANF, the “one-hybrid fitness for binding NBS DNA” value was not above 0.2. HRCK: the “one-hybrid fitness for binding NBS DNA” value was not above 0.2.
